# Test results: the supplement of paper PMC8728848
# Some of the results follow.
# B1: Surfactant Protein D (Human); Neck + Carbohydrate Recognition Domain (NCRD) (Homo sapiens) (protein)
# chain: MLLFLLSALVLLTQPLGYLEAEMKTYSHRTMPSACTLVMCSSVESGLPGRDRDGREGPRGEKGDPGLPGAAGQAGMPGQAGPVGPKGDNGSVGEPGPKGDTGPSGPPGPPGVPGPAGREGALGKQGNIGPQGKPGPKGEAGPKGEVGAPGMQGSAGARGLAGPKGERGVPGERGVPGNTGAAGSAGAMGPQGSPGARGPPGLKGDKGIPGDKGAKGESGLPDVASLRQQVEALQGQVQHLQAAFSQYKKVELFPNGQSVGEKIFKTAQFVKPFTEAQLLCTQAGGQLASPRSAAENAALQQLVVAKNEAAFLSMTDSKTEGKFTYPTGESLVYSNWAPGEPNDDGGSEDCVEIFTNGKWNDIACGEKRLVVCEF
# What was measured:
# Experiment in all cases: glycan array binding signal (z-score within array); higher = stronger binding
# Details in all cases: glycan notation: IUPAC condensed, linker removed; mutation: R343I
# Gal(b1-2)Gal = target: Gal(b1-2)Gal
# Summary of the method: (§1)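 Arrays were curated from the Consortium for Functional Glycomics database, 3228 in total, and kept only where the protein sequence was available. Binding is expressed as a within-array Z-score. This score was averaged across arrays of the same protein sequence at different concentrations or buffers and across linkers, and negative values can be read as non-binding.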
# Gal(b1-3)Gal = target: Gal(b1-3)Gal
# Summary of the method: as §1
# Gal(b1-3)Gal(b1-4)GlcNAc = target: Gal(b1-3)Gal(b1-4)GlcNAc
# Summary of the method: as §1
# Gal(b1-3)GalNAc = target: Gal(b1-3)GalNAc
# Summary of the method: as §1
# [1] = target: Gal(b1-3)GalNAc(b1-3)Gal(a1-4)Gal(b1-4)Glc
# Summary of the method: as §1
# [2] = target: Gal(b1-3)GalNAc(b1-4)Gal(b1-4)Glc
# Summary of the method: as §1
# [3] = target: Gal(b1-3)GalNAc(b1-4)[Neu5Ac(a2-3)]Gal(b1-4)Glc
# Summary of the method: as §1
# Gal(b1-3)GlcNAc = target: Gal(b1-3)GlcNAc
# Summary of the method: as §1
# [4] = target: Gal(b1-3)GlcNAc(b1-2)Man(a1-3)[Gal(b1-3)GlcNAc(b1-2)Man(a1-6)]Man(b1-4)GlcNAc(b1-4)GlcNAc
# Summary of the method: as §1
# [5] = target: Gal(b1-3)GlcNAc(b1-3)Gal(b1-3)GlcNAc
# Summary of the method: as §1
# [6] = target: Gal(b1-3)GlcNAc(b1-3)Gal(b1-4)Glc
# Summary of the method: as §1
# [7] = target: Gal(b1-3)GlcNAc(b1-3)Gal(b1-4)GlcNAc
# Summary of the method: as §1
# [8] = target: Gal(b1-3)[Fuc(a1-4)]GlcNAc
# Summary of the method: as §1
# [9] = target: Gal(b1-3)[Fuc(a1-4)]GlcNAc(b1-3)Gal(b1-3)[Fuc(a1-4)]GlcNAc
# Summary of the method: as §1
# [10] = target: Gal(b1-3)[Fuc(a1-4)]GlcNAc(b1-3)Gal(b1-4)GlcNAc
# Summary of the method: as §1
# [11] = target: Gal(b1-3)[Fuc(a1-4)]GlcNAc(b1-3)Gal(b1-4)[Fuc(a1-3)]GlcNAc
# Summary of the method: as §1
# [12] = target: Gal(b1-3)[GlcNAc(b1-6)]GalNAc
# Summary of the method: as §1
# [13] = target: Gal(b1-3)[Neu5Ac(a2-6)]GalNAc
# Summary of the method: as §1
# [14] = target: Gal(b1-3)[Neu5Ac(a2-6)]GlcNAc(b1-6)Gal(b1-4)Glc
# Summary of the method: as §1
# [15] = target: Gal(b1-3)[Neu5Ac(b2-6)]GalNAc
# Summary of the method: as §1
# [16] = target: Gal(b1-4)GalNAc(a1-3)[Fuc(a1-2)]Gal(b1-4)GlcNAc
# Summary of the method: as §1
# [17] = target: Gal(b1-4)GalNAc(b1-3)[Fuc(a1-2)]Gal(b1-4)GlcNAc
# Summary of the method: as §1
# Gal(b1-4)Glc = target: Gal(b1-4)Glc
# Summary of the method: as §1
# Gal(b1-4)Glc6S = target: Gal(b1-4)Glc6S
# Summary of the method: as §1
# Gal(b1-4)GlcNAc = target: Gal(b1-4)GlcNAc
# Summary of the method: as §1
# [18] = target: Gal(b1-4)GlcNAc(a1-6)Gal(b1-4)GlcNAc
# Summary of the method: as §1
# [19] = target: Gal(b1-4)GlcNAc(b1-2)Man(a1-3)[Gal(b1-4)GlcNAc(b1-2)Man(a1-6)]Man(b1-4)GlcNAc(b1-4)GlcNAc
# Summary of the method: as §1
# [20] = target: Gal(b1-4)GlcNAc(b1-3)Gal(b1-3)GlcNAc
# Summary of the method: as §1
# [21] = target: Gal(b1-4)GlcNAc(b1-3)Gal(b1-4)Glc
# Summary of the method: as §1
# [22] = target: Gal(b1-4)GlcNAc(b1-3)Gal(b1-4)GlcNAc
# Summary of the method: as §1
binder,measurement,setting,value
B1,glycan array binding signal (z-score),Gal(b1-2)Gal,-0.271
same,glycan array binding signal (z-score),Gal(b1-3)Gal,-0.279
same,glycan array binding signal (z-score),Gal(b1-3)Gal(b1-4)GlcNAc,-0.269
same,glycan array binding signal (z-score),Gal(b1-3)GalNAc,-0.274
same,glycan array binding signal (z-score),[1],-0.267
same,glycan array binding signal (z-score),[2],-0.273
same,glycan array binding signal (z-score),[3],-0.27
same,glycan array binding signal (z-score),Gal(b1-3)GlcNAc,-0.272
same,glycan array binding signal (z-score),[4],-0.275
same,glycan array binding signal (z-score),[5],-0.269
same,glycan array binding signal (z-score),[6],-0.274
same,glycan array binding signal (z-score),[7],-0.279
same,glycan array binding signal (z-score),[8],-0.264
same,glycan array binding signal (z-score),[9],-0.07
same,glycan array binding signal (z-score),[10],-0.253
same,glycan array binding signal (z-score),[11],-0.273
same,glycan array binding signal (z-score),[12],-0.274
same,glycan array binding signal (z-score),[13],-0.268
same,glycan array binding signal (z-score),[14],-0.278
same,glycan array binding signal (z-score),[15],-0.276
same,glycan array binding signal (z-score),[16],-0.263
same,glycan array binding signal (z-score),[17],-0.263
same,glycan array binding signal (z-score),Gal(b1-4)Glc,-0.272
same,glycan array binding signal (z-score),Gal(b1-4)Glc6S,-0.26
same,glycan array binding signal (z-score),Gal(b1-4)GlcNAc,-0.265
same,glycan array binding signal (z-score),[18],-0.275
same,glycan array binding signal (z-score),[19],-0.269
same,glycan array binding signal (z-score),[20],-0.275
same,glycan array binding signal (z-score),[21],-0.274
same,glycan array binding signal (z-score),[22],-0.266
